Reference: PubChem BioAssay (NCI)
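A five-concentration, 48-hour dose response in 96-well plates underlies each endpoint, interpolated linearly between surrounding concentrations. Here, GI50 denotes the concentration required for 50% inhibition of growth. TGI marks complete inhibition of growth.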

What follows are compounds tested on NCI-H322M lung (assay: DTP human tumour cell line panel, 48 h).

`CC1CCCCCC(=O)c2c(O)cc(O)cc2CC(=O)O1` (stereo unspecified) and `COc1cc2c(cc1OS(C)(=O)=O)N=C[C@@H]1CCCN1C2=O` cannot be ordered by TGI: over 100 µM for the first, over 100 µM for the second.

`CN1C(=O)C(c2c[nH]c3ccccc23)=C(c2c[nH]c3ccccc23)C1=O` and `Cc1c(C(Cc2ccccc2N(C)C(=O)/C=C\C(=O)O)c2c[nH]c3ccccc23)c2ccccc2n1C` (stereo unspecified) cannot be ordered by TGI: over 25 µM for the first, 30 µM for the second.

Going from `CCN(Cc1ccc(OC)cc1)c1ccc(CO)c(Cl)c1` to `CCN(CC)CC(=O)NC1c2ccccc2Oc2ccccc21`, the TGI rises from 58.8 µM to over 100 µM.

`CC(C)(CN1CCCCC1)C(=O)/C=C/c1ccccc1` and `CC(=O)N1C/C(=C\c2ccccc2)C(=O)/C(=C/c2ccccc2)C1` are within 1.5-fold of each other in TGI: 23 µM for the first, 33.4 µM for the second.

Going from `NCCCCCC(CCN)SCC1OC(n2cnc3c(N)ncnc32)C(O)C1O` (stereo unspecified) to `CN1CCN(Cc2ccc(NC(=O)c3cncc(C#Cc4cnc(N)c5ncccc45)c3)cc2C(F)(F)F)CC1`, the TGI falls from over 1500 µM to 15 µM.

`COC(=O)/C=C1\SC2(OC1=Nc1ccccc1)C1CC3CC(C1)CC2C3` (stereo unspecified) and `Cc1c2cnccc2c(C)c2c1c1ccccc1n2CCOC(=O)c1ccccc1` cannot be ordered by TGI: over 100 µM for the first, over 80.4 µM for the second.

With `O=C(CCc1n[nH]c(=S)o1)Nc1cc(Cl)ccc1Cl` the TGI was over 100 µM.

First: CN1C(=O)C(c2c[nH]c3ccccc23)=C(c2c[nH]c3ccccc23)C1=O
Second: CN1CCN(Cc2ccc(NC(=O)c3cncc(C#Cc4cnc(N)c5ncccc45)c3)cc2C(F)(F)F)CC1
The GI50 of the first is 23-fold higher: 9.14 µM for the first, 0.406 µM for the second.

With `CCN(Cc1ccc(OC)cc1)c1ccc(CO)c(Cl)c1` the GI50 was 17 µM.
